According to the supplement of paper PMC3334620:
Over roughly 33,000 sequences, “E-score (-0.5 to 0.5)” has its median near -0.01; the highest 2% begin near 0.26. The list shows a part of the results.

Each sequence was assayed against Ste12 (UniProt P13574) (assay: PBM E-score (8-mer binding enrichment) (E-score (-0.5 to 0.5)); higher = stronger / more preferred TF binding; most listed sequences are background and not binding sites). Details: protein concentration: 200 nM; construct: GST-DNA-binding domain.
Method: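 Universal 'all 10-mer' protein binding microarrays (Agilent AMADID 015681) probed with GST-tagged S. cerevisiae TFs (full-length or DBD) made by in vitro transcription/translation (PURExpress), about 100-200 nM. Bound TF was detected with fluorescent anti-GST. Each ungapped 8-mer (which stands for itself and its reverse complement) is scored by the PBM enrichment score (E-score), a modified Wilcoxon-Mann-Whitney statistic from -0.5 to +0.5, computed with the Universal PBM Analysis Suite. Scale: above 0.35 generally sequence-specific binding.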

| Sequence | PBM E-score |
| --- | --- |
| AGGCTTCC | -0.0298 |
| CCCGTGAA | -0.0332 |
| GAATCGCC | -0.0941 |
| TTGGTAAA | 0.171 |
| ATACACAC | -0.0713 |
| AGTCGTGG | -0.136 |
| GAACAAAC | 0.181 |
| GTATCACA | 0.114 |
| TTACAGAA | 0.133 |
| AACATCAC | -0.108 |
| GGAATCGA | -0.151 |
| CCATAGAA | -0.0941 |
| CAAATTCC | 0.0234 |
| CACGGTTA | 0.1 |
| ACGGCGGA | 0.0906 |
| CCGGGCCC | 0.0509 |
| AGTACCAA | 0.104 |
| AGCACGTC | -0.149 |
| CAAAGGGA | -0.0794 |
| TGCGTTAA | 0.00708 |
| CCCTTCGC | -0.118 |
| ACTCCGGG | 0.108 |

| Sequence | PBM E-score |
| --- | --- |
| TCTAGCCA | -0.0679 |
| AAAGCAAC | -0.0355 |
| AACAGTCG | -0.114 |
| GGGGATAA | 0.133 |
| AACATTAT | 0.125 |
| CAGATGTA | -0.172 |
| AAGCACAG | -0.00648 |
| AAATGTAT | 0.243 |
| CAAGCCGA | 0.101 |
| GGTCTTCA | -0.164 |
| CGGGTTCA | 0.0649 |
| CATATAAC | 0.203 |
| ACCCCACT | 0.0311 |
| AGTCCACA | -0.173 |
| CACTTCCA | -0.0241 |
| AGCGCCTC | 0.00642 |
| ACAGTATG | 0.0543 |
| TGCTGACA | -0.0721 |
| CGCAAAAA | 0.232 |
| CAAGAATC | 0.202 |
| AACAACCG | 0.0778 |
| AAATATAT | 0.273 |

| Sequence | PBM E-score |
| --- | --- |
| ATCAACGA | -0.0145 |
| CAGGACAC | -0.167 |
| TATAATCA | 0.07 |
| GAGTGCCA | -0.263 |
| ATAGAGAT | 0.0572 |
| GCAGCCGA | 0.0732 |
| ATCATATC | 0.147 |
| GACAATGA | -0.166 |
| ACATTGCG | 0.0529 |
| AACACCCA | -0.0313 |
| GCGCTGTA | 0.0787 |
| GCACGAAA | 0.177 |
| ATTCGTGA | 0.0365 |
| CGCTACTA | 0.017 |
| GCCAAGTA | -0.075 |
| AATCTCTG | 0.0459 |
| CAATAAAA | 0.128 |
| CCGGCTGC | 0.0618 |
| AGAGAGAA | -0.202 |
| AAAAGGCC | -0.148 |
| CTGATGGA | -0.0795 |
| AGTCTGAA | 0.0942 |

| Sequence | PBM E-score |
| --- | --- |
| ACGCCTTG | 0.035 |
| AAAACAGT | 0.247 |
| ACAGCCCG | -0.0948 |
| ATAGTCTC | 0.132 |
| ACTCAGAC | 0.0695 |
| AGTACGGA | -0.00441 |
| AAAGCTTT | 0.0791 |
| ACTGAGCC | -0.00502 |
| AGGACAAT | -0.0807 |
| ATGCATTA | 0.114 |
| GATAGCAA | 0.14 |
| CCGTTATA | 0.00346 |
| ACACAGAG | -0.0618 |
| AACTCCGA | 0.14 |
| ACTAACAG | 0.236 |
| CCAATTAA | 0.151 |
| AAAAACGG | 0.174 |
| AGTGTTAA | 0.00597 |
| GAGTCAGA | 0.0439 |
| AGAGGAAA | 0.0478 |
| CTGTAGAA | 0.0983 |
| CACGTATC | -0.0527 |

| Sequence | PBM E-score |
| --- | --- |
| CAGGGTCA | -0.191 |
| ATGGAGGA | -0.14 |
| AGGGCGCA | -0.161 |
| CTGAGCGA | -0.13 |
| GAGGCCTA | -0.186 |
| ACAATCCG | -0.0367 |
| GGTAAAAC | 0.239 |
| GGAGAACA | -0.0881 |
| CAAACCTG | -0.0301 |
| CTAGCAAG | -0.218 |
| ATAACTGG | 0.1 |
| GAAGGAGA | -0.107 |
| AAATCCAA | 0.131 |
| CAGAGAGA | -0.113 |
| AATTATTC | 0.188 |
| CGGGGTAG | -0.106 |
| CAGTGCCG | -0.0275 |
| GCAGATTA | -0.0176 |
| AAATCGCA | 0.0432 |
| AGCTAAGG | -0.394 |
| ACCACCAC | 0.03 |
